Among the test systems are HCC-1143; HCC-1187; MDA-468; SUM-149.
Common to all, as to assay: cell viability relative to vehicle (% of vehicle); basal-like triple-negative breast cancer lines; higher = less cytotoxic
Conditions in all cases: 10 µM; 72 h

This is one part of the list. Most values come without repeats; read them as rough.
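Further: stably firefly luciferase-GFP labeled cells in 96-well plates, viability read as luciferase photon flux after d-luciferin addition, treated wells normalized to vehicle wells, single-dose high-throughput screen.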

In the case of `CCOC(=O)C(CCc1ccccc1)NC(C)C(=O)N1C(C(=O)O)CC2CCCC21` (stereo not drawn) [Ramipril], the cell viability was determined as 94.2 with HCC-1143, 88.6 with HCC-1187, 110 in the assay on MDA-468 and 104 with SUM-149.

Regarding `Cl.N#Cc1ccc2[nH]cc(CCCCN3CCN(c4ccc5oc(C(N)=O)cc5c4)CC3)c2c1` [Vilazodone Hydrochloride], the cell viability in the assay on HCC-1143 was 103; in the assay with HCC-1187, 102; in the assay with MDA-468 it was 95.1; with SUM-149, 120.

As to `Cc1ccc(C(=O)C(C)CN2CCCCC2)cc1.Cl` (stereo not drawn) [Tolperisone HCl], the cell viability with HCC-1143 turned out to be 76.2; with HCC-1187, 92.9; in the assay with MDA-468, 112; in the assay on SUM-149, 94.2.

`Cc1ncc(CO)c(CO)c1O.Cl` [Pyridoxine HCl]: the cell viability in the assay with HCC-1143 worked out at 78.5; in the assay with HCC-1187, 81.2; with MDA-468, 105; in the assay on SUM-149, 111.

For `C=CCNC1=C2CC(C)CC(OC)C(O)C(C)C=C(C)C(OC(N)=O)C(OC)C=CC=C(C)C(=O)NC(=CC1=O)C2=O` (stereo not drawn), the cell viability in the assay on HCC-1143 stood at 46.8; with HCC-1187, 42; in the assay on MDA-468 it was 41; in the assay on SUM-149, 55.8.

As for `CCOC(=O)C(CCc1ccccc1)NC(C)C(=O)N1Cc2ccccc2CC1C(=O)O.Cl` (stereo not drawn) [Quinapril HCl], the cell viability came out at 102 with HCC-1143, 88.8 in the assay with HCC-1187, 112 in the assay on MDA-468 and 121 in the assay on SUM-149.

With `CNC1C(OC2C(OC3C(O)C(O)C(N=C(N)N)C(O)C3N=C(N)N)OC(C)C2(O)C=O)OC(CO)C(O)C1O.CNC1C(OC2C(OC3C(O)C(O)C(N=C(N)N)C(O)C3N=C(N)N)OC(C)C2(O)C=O)OC(CO)C(O)C1O.O=S(=O)(O)O.O=S(=O)(O)O.O=S(=O)(O)O` (stereo not drawn) [Streptomycin sulfate], the cell viability in the assay with HCC-1143 turned out to be 76; in the assay with HCC-1187 it was 70.3; with MDA-468 it was 94.3; in the assay on SUM-149 it was 90.1.

As to `CN(C)CCC(c1ccc(Br)cc1)c1ccccn1.O=C(O)C=CC(=O)O` (stereo not drawn) [Brompheniramine hydrogen maleate], the cell viability in the assay on HCC-1143 was 73.8; in the assay on HCC-1187, 96.6; in the assay with MDA-468, 96.3; with SUM-149 it was 98.4.

As to `Cc1ccc(NC(=O)c2ccc(CN3CCN(C)CC3)cc2)cc1Nc1nc(-c2cccnc2)cs1` [Masitinib (AB1010)], the cell viability with HCC-1143 was determined as 79.9; with HCC-1187, 54.2; in the assay on MDA-468, 87.2; in the assay on SUM-149, 78.5.

For the molecule `CC(C)C(N)C(=O)OCCOCn1cnc2c(=O)nc(N)[nH]c21.Cl` (stereo not drawn) [Valaciclovir HCl], the cell viability was found to be 98.9 in the assay with HCC-1143, 112 in the assay with HCC-1187, 88.5 in the assay on MDA-468 and 118 in the assay with SUM-149.

Take `CN(C(=O)CN(CCO)CC(=O)N(C)C(C)(C)Cc1ccccc1)C(C)(C)Cc1ccccc1` [Oxethazaine]: the cell viability in the assay on HCC-1143 stood at 93.7; in the assay on HCC-1187, 99.5; in the assay on MDA-468 it was 104; in the assay with SUM-149, 73.7.

Turning to `CN1CCN(c2ccc(C(=O)/N=c3\[nH][nH]c4ccc(Cc5cc(F)cc(F)c5)cc34)c(NC3CCOCC3)c2)CC1` [Entrectinib], the cell viability in the assay on HCC-1143 is 35.3; with HCC-1187, 26.9; in the assay with MDA-468, 33.3; in the assay with SUM-149, 37.1.

As to `C#CC1(O)CCC2C3CCC4=CC(=O)CCC4C3CCC21C` (stereo not drawn) [Norethindrone], the cell viability was determined as 78 with HCC-1143, 111 in the assay with HCC-1187, 126 in the assay on MDA-468 and 116 in the assay on SUM-149.

Consider `O=C1CCc2ccc(OCCCCN3CCN(c4cccc(Cl)c4Cl)CC3)cc2N1` [Aripiprazole], for which the cell viability with HCC-1143 amounted to 72.8; in the assay with HCC-1187, 108; with MDA-468, 96.8; with SUM-149, 106.

With `CCOC(=O)C1OC1C(=O)NC(CC(C)C)C(=O)NCCC(C)C` (stereo not drawn), the cell viability with HCC-1143 came to 85.5; with HCC-1187, 85; in the assay with MDA-468, 85; in the assay with SUM-149 it was 98.6.

Regarding `CN1CCN(c2c(F)cc3c(=O)c(C(=O)O)cn4c3c2OCN4C)CC1` [Marbofloxacin], the cell viability is 95 in the assay on HCC-1143, 117 with HCC-1187, 88.6 in the assay with MDA-468 and 148 with SUM-149.

Turning to `Cc1cc(-n2c(=O)[nH]c(=O)n(C)c2=O)ccc1Oc1ccc(SC(F)(F)F)cc1` [Toltrazuril], the cell viability was found to be 95.3 with HCC-1143, 88.6 in the assay on HCC-1187, 98.7 with MDA-468 and 92.1 in the assay on SUM-149.

With `CCCCOc1ccc(C(=O)CCN2CCCCC2)cc1.Cl` [Dyclonine HCl], the cell viability with HCC-1143 is 95.4; in the assay on HCC-1187 it was 81.8; with MDA-468, 139; with SUM-149, 123.

`O=c1nc[nH]c2c1ncn2C1CCC(CO)O1` (stereo not drawn) [Didanosine]: the cell viability in the assay with HCC-1143 is 85.2; in the assay with HCC-1187, 98.5; in the assay on MDA-468 it was 101; in the assay on SUM-149 it was 114.

Regarding `CC(O)C1C(=O)N2C(C(=O)O)=C(SC3CNC(C(=O)N(C)C)C3)C(C)C12.O.O.O` (stereo not drawn) [Meropenem trihydrate], the cell viability was determined as 78.7 in the assay on HCC-1143, 77 in the assay with HCC-1187, 110 with MDA-468 and 84.1 with SUM-149.

Consider `C#CC1(O)CCC2C3CCC4=CC(=O)CCC4C3CCC21CC` (stereo not drawn) [Levonorgestrel], for which the cell viability with HCC-1143 was 75.7; in the assay on HCC-1187 it was 112; in the assay on MDA-468, 101; in the assay with SUM-149 it was 91.5.

In the case of `CN(C)CCc1c[nH]c2ccc(Cn3cncn3)cc12.O=C(O)c1ccccc1` [Rizatriptan Benzoate], the cell viability was 74.1 in the assay with HCC-1143, 101 in the assay on HCC-1187, 122 with MDA-468 and 116 in the assay with SUM-149.

In the case of `CCCCNc1ccc(C(=O)OCCN(C)C)cc1.Cl` [Tetracaine HCl], the cell viability in the assay on HCC-1143 worked out at 88.5; in the assay with HCC-1187 it was 77.9; in the assay with MDA-468, 102; with SUM-149, 126.

For the molecule `CN1CCN(C2=Nc3ccccc3Oc3ccc(Cl)cc32)CC1.O=C(O)CCC(=O)O` [Loxapine Succinate], the cell viability worked out at 74.4 in the assay on HCC-1143, 84 in the assay on HCC-1187, 105 in the assay on MDA-468 and 101 in the assay with SUM-149.

For `CCN(CC)CC(=O)Nc1c(C)cccc1C` [Lidocaine], the cell viability in the assay on HCC-1143 worked out at 57.4; with HCC-1187, 88.1; in the assay with MDA-468 it was 84.1; with SUM-149 it was 94.

For `OCCN1CC(O)C(O)C(O)C1CO` (stereo not drawn) [Miglitol], the cell viability in the assay on HCC-1143 was found to be 80.4; in the assay on HCC-1187, 93; with MDA-468 it was 105; in the assay on SUM-149, 108.

Consider `CN1CCN2c3ccccc3Cc3ccccc3C2C1.Cl` (stereo not drawn) [Mianserin HCl], for which the cell viability in the assay on HCC-1143 worked out at 92.4; in the assay on HCC-1187, 96.9; in the assay on MDA-468, 92.6; in the assay on SUM-149, 107.

For the origin of these results see the supplement of paper PMC8512760.
